Results on 172 sequences are retold here after publication PMC6212790.

This is one part of the list. At the low end of the ranking the order means little.

The target of this experiment is T1, GST-Rok-C97-191 (UniProt O34857).
T1 sequence: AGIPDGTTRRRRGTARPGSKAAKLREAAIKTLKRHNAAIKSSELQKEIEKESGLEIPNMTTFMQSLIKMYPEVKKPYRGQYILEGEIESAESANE
Kind of experiment: protein binding microarray.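 Note: rank score from −0.5 (least bound) to 0.5 (best bound).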 To be noted: Rok is a gene silencer of Bacillus subtilis; high values mean tight binding; most listed sequences are background and not binding sites; double strand, one strand shown.
As for AATCTATG, the binding signal amounted to 0.135 E-score. Sequence GAAGCAGC registered a binding signal of -0.198 E-score. The same measure for ACATGACC: 0.104 E-score; for GAGTCCAA: 0.0506 E-score; for CCTAATAA: -0.00276 E-score. The same measure for ACGGCATG: -0.193 E-score; for GCCGGCAA: -0.183 E-score. Consider CCCGGGGC, for which the binding signal is -0.368 E-score. CCAACTGA: the binding signal was -0.0233 E-score. Sequence ACGTCGAC gave a binding signal of -0.13 E-score. Turning to AGTTGTCA, the binding signal was found to be 0.0746 E-score. As for AATATAGA, the figure is 0.309 E-score; as for GATCATCA, -0.126 E-score; as for ACGCGAAT, -0.015 E-score. As for CATAAGAA, the figure is 0.192 E-score. CCTATAGA yielded a binding signal of 0.109 E-score. CAGTACCA showed a binding signal of -0.12 E-score.

With AGCTATGC, the binding signal is -0.138 E-score. As for AGGACGGA, the figure is -0.127 E-score.

AGCATGCG: the binding signal was -0.0582 E-score. For CTTTGTAA, the binding signal amounted to 0.0958 E-score. As for ACAAACCA, the figure is 0.0262 E-score; as for ACGTGGGC, -0.0293 E-score; as for GATAATGA, 0.226 E-score. CAACCCGA showed a binding signal of -0.0811 E-score. The same measure for AAGGGATA: 0.119 E-score; for CAGCGTAC: 0.0672 E-score.

As to CTTTCGCA, the binding signal was -0.0817 E-score. As for ATAATAGA, the figure is 0.232 E-score; as for GTGATAAC, 0.107 E-score. The same measure for CACACTGC: -0.118 E-score. The same measure for CGCTCCAC: -0.137 E-score; for TACTGAAA: 0.00741 E-score; for CGAATTGC: 0.0395 E-score. TAACTCAA showed a binding signal of 0.16 E-score. In the case of CAGGGGGA, the binding signal was -0.311 E-score.

For AATTATCG, the binding signal amounted to 0.277 E-score. Sequence ACTTGATC yielded a binding signal of 0.0308 E-score. As for AGGTTTTG, the binding signal worked out at 0.0456 E-score.

For CTGAGTAC, the binding signal is -0.142 E-score.

In turn, CGGGATCC yielded a binding signal of -0.12 E-score.

Sequence ATTTCAAC came in with a binding signal of 0.195 E-score. As to AGCGGATC, the binding signal was -0.096 E-score.

Consider AGGGTACA, for which the binding signal was -0.0656 E-score. As for CATCATGA, the figure is -0.0797 E-score; as for GGATTCCC, -0.265 E-score. ATGATAAA had a binding signal of 0.228 E-score. TATTGCGA came in with a binding signal of 0.173 E-score.

On to GGCCGCCC, for which the binding signal was -0.312 E-score.

The sequence GTTCGGAA registered a binding signal of 0.0788 E-score.

GTTCCGGA had a binding signal of -0.09 E-score. The same measure for ACTACTCG: 0.159 E-score.

GGACATGA displayed a binding signal of -0.135 E-score.

The sequence GATTGGGA came in with a binding signal of -0.215 E-score. TACTGTGA: the binding signal was 0.179 E-score. AGTTTACC came in with a binding signal of 0.0748 E-score. The same measure for GACGGTCC: -0.3 E-score; for CCTACTCC: -0.0565 E-score. As for AGCGCTAA, the figure is 0.161 E-score. Turning to GACTGTGC, the binding signal was -0.0664 E-score.

Sequence AATCCCTG showed a binding signal of -0.0199 E-score.

GCCGAGGC returned a binding signal of -0.0855 E-score.

ATAAAAGC returned a binding signal of 0.16 E-score.

The sequence GCGGCACC had a binding signal of -0.306 E-score.

GTCGAGTA came in with a binding signal of 0.105 E-score. As to GTACACAC, the binding signal is -0.0207 E-score. Regarding ATGGTGGC, the binding signal was -0.232 E-score.

TAGGCTAA registered a binding signal of 0.00458 E-score. Consider CGGATCGA, for which the binding signal was -0.106 E-score. As for AGGCGTGG, the figure is -0.0664 E-score. Consider CTTGATGC, for which the binding signal is -0.273 E-score. The same measure for CAAGGTCG: -0.133 E-score; for CGCTATAC: 0.0333 E-score; for ATGTCGGA: 0.122 E-score. CAAACGAG yielded a binding signal of 0.0394 E-score.

Sequence AAATGGTC had a binding signal of 0.0445 E-score.

Take CACGGCGC: the binding signal is -0.177 E-score. Regarding CACCCCTG, the binding signal is -0.181 E-score. The same measure for AATTTCTA: 0.355 E-score; for TCGGTGCA: -0.0315 E-score; for ATACATAG: 0.371 E-score. The same measure for AAAGGACT: -0.175 E-score; for CAGATCGC: -0.157 E-score.

Turning to ATGGCGCA, the binding signal was -0.0193 E-score.

On to CAGGTTCA, for which the binding signal was -0.054 E-score. ATTTTGTA registered a binding signal of 0.228 E-score. Turning to CACTTACC, the binding signal was -0.0895 E-score. In turn, ACAATGTA registered a binding signal of 0.227 E-score.

For the sequence TGCCGGCA, the binding signal was -0.12 E-score. The same measure for CGACGTCA: 7.12e-05 E-score. As for GGAGAAAC, the figure is -0.116 E-score; as for CTGCCATC, -0.229 E-score; as for GGACACGA, -0.133 E-score. The same measure for GTAGACAA: -0.0286 E-score; for CCTAGACG: -0.0529 E-score.

With CTCAGCCA, the binding signal is -0.111 E-score. The same measure for ACAATCGT: 0.0333 E-score.

With ACGCACTA, the binding signal was determined as 0.294 E-score. As for CCAGCCCA, the figure is -0.138 E-score; as for ATCGGAGG, -0.162 E-score.

In turn, AAGTCCAA registered a binding signal of -0.179 E-score. The same measure for CTGATATA: 0.258 E-score; for AGCACCGG: -0.209 E-score; for CACGTATA: 0.228 E-score. CGCATTCC displayed a binding signal of -0.0738 E-score. The same measure for CGGCTGAC: -0.144 E-score; for AGTAAGTA: 0.211 E-score; for CACAGCCG: -0.15 E-score. The same measure for CAAGTTTA: 0.068 E-score. The same measure for ATATCGTC: 0.124 E-score; for GTCGATTA: 0.0218 E-score; for CTTCCGGA: -0.215 E-score. CGAGTAAA showed a binding signal of 0.128 E-score. The same measure for AAACCCTT: 0.036 E-score; for CGGTGCCA: -0.302 E-score; for ACATTACC: 0.0874 E-score. As for TCTCAAGA, the figure is -0.0714 E-score; as for AACTCTAC, 0.183 E-score; as for CAGTGACC, -0.203 E-score. As for CATCAGTC, the figure is -0.0234 E-score. Take CGTAACAA: the binding signal worked out at 0.0497 E-score. As for GTTAAAGA, the figure is -0.039 E-score; as for CATCCCAA, -0.127 E-score; as for ATTATACC, 0.228 E-score. As for CCACGTGG, the figure is -0.0824 E-score; as for ATTACGGA, 0.162 E-score; as for AGGACTAC, -0.116 E-score. The same measure for AATAACAC: 0.237 E-score. Regarding CAAAATCA, the binding signal came out at 0.161 E-score. As for CCATTACC, the figure is 0.0875 E-score; as for CTAAATCC, 0.23 E-score. The same measure for GAAACATA: 0.328 E-score. For the sequence ATAGTCGG, the binding signal came out at 0.0309 E-score. As for CCACCTAG, the figure is -0.177 E-score; as for GAGGCTCA, -0.0913 E-score; as for ATGCGCTC, -0.148 E-score. The same measure for ATTAGCCG: 0.102 E-score; for GAGCGAGC: -0.189 E-score.

The sequence AGGAGAAA gave a binding signal of 0.073 E-score.

Take CTGTTAAA: the binding signal is 0.0207 E-score. As for CACAGAGC, the figure is -0.228 E-score; as for CTGTTTTA, 0.202 E-score; as for GTTAGGCA, -0.0234 E-score. GACGCCGC: the binding signal is -0.162 E-score.

In turn, CGCACTAC had a binding signal of -0.0122 E-score.

GGGCCGCA came in with a binding signal of -0.326 E-score. The same measure for ATCATCTA: 0.148 E-score; for GACAATAC: -0.0699 E-score; for ATTCTTTC: -0.0403 E-score. The same measure for TATACTCA: 0.139 E-score; for CATTACCG: -0.000678 E-score. As for AGGTATGA, the figure is 0.191 E-score; as for ACGTACTG, 0.0188 E-score; as for CGAATTAG, 0.279 E-score. For the sequence AAGAACAG, the binding signal is -0.168 E-score. The same measure for ACCGAGCA: -0.0067 E-score.

With GGAGGACA, the binding signal is -0.142 E-score. As for AACTTTCG, the figure is 0.0449 E-score. As for AAGTGTAG, the figure is 0.225 E-score; as for ATAGAGGG, -0.121 E-score; as for TCTTCGAA, -0.0497 E-score.

Sequence AGTACCAG displayed a binding signal of 0.0658 E-score. GTCCACAC yielded a binding signal of -0.243 E-score.

The sequence ATATTCGA had a binding signal of 0.26 E-score. The same measure for GACTCCGA: 0.0131 E-score; for CTTATGGA: -0.0844 E-score. The same measure for AGCGTCCT: -0.248 E-score; for GTATACGA: 0.162 E-score; for ACGACATA: 0.123 E-score. As for CAGTTTAA, the figure is 0.0793 E-score; as for GGTGCTGA, -0.0629 E-score. AGGTGGAC came in with a binding signal of -0.27 E-score.
